# Reference: the RNAGym collection of RNA variant scans (doi:10.7554/elife.90254)
# Read counts are not given, so values of variants with three or more changes are uncertain.
# B1: OR4K15 (parent)
# chain: GUUAACGGUCAUAGGCCAUGGAAACUAGGAGCACCAUUUCGCUGCCAGUGAAGAAAUGAACAAAGAAAAUCUGGGCCAGGCAGGCAUCAAAAGAAAUAGUCUUGCGCUCAACCAGAAAGUCUGUAAUCAUUUUAAGGGUA
# Variants of: B1
# Assay: self-cleavage, relative activity (ratio to wild type); higher = more cleavage; in vitro, sequencing; the parent is a self-cleaving ribozyme
row,Variant,self-cleavage
1,C17U A23C A30G A47G A82G A111G,0.02
2,A4G U57C A64U U72C,0.53
3,C45G A66C A86G A94G,1.49
4,A59G C105U A118G,0.03
5,A55G U108C C109U,0.05
6,A47G A59G A78G A94G,0.14
7,U49C U87C A114C,0.02
8,A23G A69G U122C,0.61
9,A78G A91G A96G U97C,0.01
10,A78U A94G A95G,0.12
11,A51G U108C A134G,0.03
12,U3C A33G A90G G123A,0.21
13,U37C A86U A110G A126G,0.06
14,U38C G79A A86U U103C,0.02
15,A18G G29U A54G A135G,1.59
16,G14A U102C A116G,0.61
17,A11G U37C A86G U139C,0.73
18,U9C A59G G84A U132C,1.45
19,A22G U108C A125U,0.01
20,A78G A116G U130C,0.05
21,A22G A63G A67G A82G U122C,0.41

row,Variant,self-cleavage
1,U43C U49C U72C A111G,0.02
2,A23G A30G A55G A129U,0.75
3,A60G A67G A94U,1.27
4,U108A A110G A116G A118G U139C,0
5,U2A A30G U38A A62U A82U A94G,0.14
6,U39A A92U A118G,2.13
7,U37C A64U C88A U127C,0.43
8,U9C C17U A22U A23G U37C A62U A116U,0.26
9,U39C A54G A78G A82U G137A,0.22
10,U19C U102A A116U U131C,0.05
11,U19A A24G A30U U49A A117U,0.78
12,C16U A27C A33G A63G U108C,0
13,A69G U120C A125G A126G,0.03
14,A4G A90G U132A,0.89
15,A63G A114U U122A U124C,0.08
16,U39A A114G U130C A135C A140G,0.05
17,A67G A82G A86G U100C U102C U103C,2.26
18,A47G G80A A96G C113U,0
19,U19C A54G A110G,0.14
20,A4G A22G A118C U131C,0.97
21,A5G A59U A78G A114G A126G A129G U139C,0.02

row,Variant,self-cleavage
1,U37A A51G A69U A78G,0.26
2,G7U U12A A23G A24G A33G C40U A82G,0.46
3,A51G A111G U132C,0
4,A23U A33G A54G A118G,0.55
5,C40U A60G U132C,1.74
6,U26C U39A A54G A56G A114G,0.34
7,A56G A60U U87C A90G U131C,0.41
8,A18U U49C A51G A95G,1.36
9,A5G U19A G44A,1.36
10,U9C A54U A91G,0.65
11,A67G U72C A95G,0.22
12,A23G U49A U72C U103C,0.08
13,A51G A54G A62U,0.95
14,U2G A22U A55G,0.7
15,A52G A98G G104U,0.01
16,U57A A78G G84A,0.19
17,A66U A68U U87C,1.23
18,U9C U102C A126G,0.83
19,A30G U38C A52G A66G U70C,0.85
20,U2C A59G A63G,0.31
21,C34U C35U A95G,2.69

row,Variant,self-cleavage
1,A24G U57C A116G U122C A126G,0.28
2,U2C A13G A52G A63G,1.51
3,A60G A62G G123U,1.07
4,A11G U87A A90G,1.61
5,U102C U130C U131C,1.82
6,U2A A126G U139C,1.14
7,A23G A62G A94G,1.36
8,U37C A86C U120A U130C,0.17
9,A18G A33G A54G,0.28
10,U2C A11U A30G A56G A82U A95G,0.24
11,G75A A89U A94G A135G,0.06
12,U38C U49C C105U,0.25
13,A67G U70C A125G,0.22
14,A23G A66G A86G G123C A140G,0.19
15,A47G A67G A117G,1.8
16,G7A A33G C42U A47U A94G,0.58
17,A110G A114G A126G,0.07
18,A51G U72C U102C,0.2
19,U70C A92G A114G A140G,0.04
20,A30G A52U A60G A82G A96G A117G,0.39
